# Publication PMC6919601, “Identification of Plasmodium dipeptidyl aminopeptidase allosteric inhibitors by high throughput screening” (PLoS ONE, 2019)
# Among all 110,000 compounds or so, about 230 (0.21%) showed an effect of 50% or more. This is one part of the list.
# Biological target: DPAP1 (Plasmodium falciparum, UniProt Q8IIJ9)
# Assay: primary screen, percent inhibition; read by cleavage of a fluorogenic dipeptide substrate; higher = more effect of the substance
# Set-up: species or system P. falciparum D10 trophozoite lysates; single well
# 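Also: 30 min substrate incubation versus DMSO and 10 µM JCP410 controls.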
# Chain of DPAP1 (Q8IIJ9 whole entry, looked up): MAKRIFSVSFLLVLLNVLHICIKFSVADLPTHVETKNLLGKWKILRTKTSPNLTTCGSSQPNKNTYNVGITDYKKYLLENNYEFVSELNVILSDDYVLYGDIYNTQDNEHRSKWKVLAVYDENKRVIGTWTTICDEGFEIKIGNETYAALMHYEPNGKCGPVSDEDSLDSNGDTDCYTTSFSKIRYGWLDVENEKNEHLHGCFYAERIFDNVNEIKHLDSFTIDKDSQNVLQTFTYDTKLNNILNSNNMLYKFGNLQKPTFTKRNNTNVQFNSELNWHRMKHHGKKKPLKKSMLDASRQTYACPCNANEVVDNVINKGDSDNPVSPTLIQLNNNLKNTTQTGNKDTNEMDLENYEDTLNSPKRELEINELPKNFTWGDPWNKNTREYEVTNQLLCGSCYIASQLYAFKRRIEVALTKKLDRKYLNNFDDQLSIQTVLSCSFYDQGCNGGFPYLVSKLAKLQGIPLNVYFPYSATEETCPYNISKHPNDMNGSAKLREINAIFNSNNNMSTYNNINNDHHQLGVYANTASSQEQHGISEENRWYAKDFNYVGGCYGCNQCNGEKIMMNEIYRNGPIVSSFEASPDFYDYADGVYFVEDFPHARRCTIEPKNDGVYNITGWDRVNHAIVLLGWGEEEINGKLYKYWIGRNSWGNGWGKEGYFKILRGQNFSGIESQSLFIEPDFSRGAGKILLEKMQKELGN
row,Compound,% Inhibition @ 10 uM
1,COC(=O)c1sccc1NC(=O)Nc1cn(CC(C)C)c(=O)c2ccccc12,2.57%
2,Fc1ccccc1N1CCN(Cc2ccc(-c3ccccc3)cc2)CC1,4.57%
3,Cn1cccc1Cc1nnc(SCC(=O)N2CCOCC2)n1-c1ccc(Cl)cc1,-3.1%
4,Cc1cc(C)c2c3c(sc2n1)C(c1ccc(Cl)cc1)C(C#N)=C(N)O3 (stereo not shown),-0.305%
5,CCN1CCN(CCCNC(=O)C(NC(=O)C2CCC(C)CC2)C(C)C)CC1 (stereo not shown),-5.67%
6,O=C1c2cccc3cccc(c23)C(=O)N1Cc1cccnc1,-6.02%
7,COc1ccc(Cl)cc1C1=N/C(=C\c2coc3ccccc3c2=O)C(=O)O1,-0.48%
8,CCOC(=O)C1=C(C)N=c2s/c(=C\c3ccc(N(CC)CC)cc3)c(=O)n2C1c1ccc(C)cc1 (stereo not shown),1.72%
9,CC1=C(C(=O)Nc2ccccc2C)C(c2cccnc2)n2ncnc2N1 (stereo not shown),-3.67%
10,CCC(C)NC(=O)CCc1c(C)nc2c(c(C)nn2-c2ccccc2)c1C (stereo not shown),0.953%
11,N#Cc1c(N)nc2c(c1-c1ccccc1Cl)CCCC2,1.26%
12,NC(=O)C1CCN(C(=O)c2ccc(CSc3nc4cccnc4n3Cc3ccccc3)cc2)CC1,-0.878%
13,CC(C)=CCC[C@H](C)CCN1CCC(C(N)=O)CC1,-1.21%
14,CCOC(=O)C(C(=O)OCC)c1ccc2cccc(O)c2n1,-3.16%
15,CCc1ccc(CNCCCSc2nnnn2-c2ccccc2)cc1,0.596%
16,N#CCCN1CCN(S(=O)(=O)c2ccc(C#N)cc2)CC1,-3.64%
17,CCOC(=O)c1sc(NC(=O)c2ccccc2F)nc1C,23.6%
18,Cn1cc(NC(=O)N2CCN(C(=O)c3ccco3)CC2)c2ccccc2c1=O,9.21%
19,CC(=O)Nc1ccc(S(=O)(=O)Nc2ccc(S(=O)(=O)N3CCc4ccccc43)cc2)cc1,5.87%
20,O=C(Cc1ccc(F)cc1)Nc1ccc(C(=O)c2ccccc2)cc1,5.66%
21,C(=N/n1cnnc1)/c1cccnc1,4.67%
22,COc1ccc(-n2nnc(-c3nsc(NC(=O)c4ccccc4)n3)c2C)cc1,1.26%

row,Compound,% Inhibition @ 10 uM
1,Cc1ccc(NC(=O)c2cc(-c3ccc(C)o3)nc3ccccc23)nc1,3.72%
2,CCCOc1ccc(-c2cnc(S)nc2N)cc1,6.82%
3,O=S1(=O)N=C(OCc2ccccc2)c2ccccc21,5.35%
4,COc1cccc(/C=C2/SC(Nc3ccccc3O)=NC2=O)c1,0.361%
5,O=[N+]([O-])c1ccc(-c2cnc(N3CCOCC3)nc2)cc1,-0.636%
6,O=C1NC(=O)C(=Cc2cccc(OCc3ccc(Cl)c(Cl)c3)c2)C(=O)N1,3.04%
7,CCC(NCc1cccnc1)c1ccc(OC)c(OC)c1 (stereo not shown),-6.94%
8,O=C(CN1C(=O)c2ccccc2C1=O)Nc1ccc2c(c1)OCO2,5.04%
9,O=C(/C=C\Nc1ccc(Br)cc1)c1cccnc1,3.05%
10,COCCN1C(=O)C(O)=C(C(=O)c2ccccc2)C1c1ccccc1F (stereo not shown),3.04%
11,CCc1nn(C(CC)C(=O)NCCCN2CC(C)CC(C)C2)c(=O)c2cc3oc(C)cc3n12 (stereo not shown),1.8%
12,CN(CC(=O)N1CCc2ccccc2C1)S(=O)(=O)c1ccc2[nH]c3c(c2c1)CCCC3,0.174%
13,CCOC(=O)/C=C(\C)N1N=C2c3ccc(OC)cc3CCC2C1c1ccc(OC)cc1 (stereo not shown),60.6%
14,C=CCN1C(=O)S/C(=C/c2cc(Cl)c(OC)c(OC)c2)C1=O,3.93%
15,CC12CN(S(=O)(=O)c3ccccc3)CC(C)(CN(S(=O)(=O)c3ccccc3)C1)C2,1.62%
16,C(=C\c1cccs1)/c1ccccn1,-6.28%
17,O=c1c(CN2CCSCC2)coc2ccccc12,-1.04%
18,CCCCC(=O)Nc1c(C)c(CC)nc2ccccc12,0.266%
19,CCN1CCCC1CNC(=O)c1noc2c1COc1ccc(C)cc1-2 (stereo not shown),0.867%
20,CC(C)C/N=C/C1=C(O)CC(C)(C)CC1=O,-0.48%
21,O=C(CSc1c2c(nc3ccc(Cl)cc13)CCCC2)NCC1CCCO1 (stereo not shown),-6.89%
22,CCn1c(C)c(C2=CCN(S(=O)(=O)c3ccc(OC)c(OC)c3)CC2)c2ccccc21,2.34%

row,Compound,% Inhibition @ 10 uM
1,COc1cc2c(cc1OC)C(COc1cccc(C(F)(F)F)c1)N(C(=O)C1CC1)CC2 (stereo not shown),0.0904%
2,COc1cccc(/C=C2\C(=O)C(=O)c3ccccc32)c1,-2.28%
3,COc1ccc(C(=O)Nc2ccc(F)cc2)cc1,1.91%
4,CCc1ncc(C(O)c2ccccc2)n1C (stereo not shown),-5.94%
5,Cc1ccc(OCc2nc(C#N)c(N3CC(C)CC(C)C3)o2)cc1 (stereo not shown),-2.75%
6,Cc1noc(/C=C/N(C)C)c1S(=O)(=O)N1CCC2(CC1)OCCO2,11.4%
7,COc1ccc(N(CC(=O)Nc2cc(Cl)cc(Cl)c2)S(=O)(=O)c2ccccc2)c(OC)c1,-4.43%
8,COc1ccc(CN2CCCCCCC2)cc1C,5.32%
9,Cc1ccccc1OCC(=O)Nc1ccc(N2CCN(C(=O)C(C)C)CC2)c(Cl)c1,0.145%
10,Cc1ccc(CNC(=O)C2CCC(C/N=c3/c(N4CCCCC4)c(O)c3=O)CC2)cc1 (stereo not shown),-5.81%
11,Cc1ccc(N(CC(N)=O)C2SC(=O)N(Cc3cccc(C(=O)O)c3)C2=O)cc1 (stereo not shown),6.1%
12,C=CCOc1ccccc1CN1CCC(Cc2ccccc2)CC1,5.61%
13,Cc1ccc(-n2c(SCc3ccccn3)nc3nnc(C)c-3c2N)cc1Cl,-3.93%
14,CCN(CC)CCN(C)Cc1c(Cl)cccc1Cl,-3.8%
15,O=C(N[C@@H](Cc1ccc2ccccc2c1)C(=O)N[C@@H](CCc1ccccc1)C(=O)c1nc2ccccc2o1)C1CCNCC1,1.35%
16,CCOC(=O)C1=C(CN(C)Cc2ccccc2)NC(=O)NC1c1cccs1 (stereo not shown),1.44%
17,OC1CCCN(Cc2cccnc2)C1 (stereo not shown),-4.5%
18,CC12CCC(C(=O)NCc3ccc4c(c3)OCO4)(C(=O)C1=O)C2(C)C (stereo not shown),-7.9%
19,Cc1ccc(C2=NN(c3nc(-c4ccc(Cl)cc4)cs3)C(c3ccc(Cl)cc3)C2)cc1 (stereo not shown),2.91%
20,COc1cccc(CNCc2ccc(C(=O)O)s2)c1,-0.637%
